# From patent US20250059278A1 (SICHUAN HUIYU PHARMACEUTICAL, published 2025)
# How the values were obtained:
# [1] = target: T1, Monkey CD3 on cynomolgus HSC-F cells (cynomolgus monkey, UniProt Q95LI5 22-198; Q95LI7 23-181; Q95LI8 22-171); assay: flow cytometry on HSC-F cells
# T1 construct: whole, on cells; also called Monkey CD3-expressing cynomolgus HSC-F cells; cynomolgus monkey CD3-expressing HSC-F cells
# [2] = target: T2, Human CD3 on Jurkat cells (human, UniProt P07766; P09693; P04234); assay: flow cytometry on Jurkat cells
# T2 construct: whole, on cells; also called Human CD3-expressing Jurkat cells; Jurkat (naturally expressing human CD3)
# [3] = target: T3, Human CD3εγ recombinant antigen (acrobiosystems, Cat. No. CDG-H52W5) (human, UniProt P07766 23-126; P09693 23-116); assay: SPR chip (Carterra), antibody captured, antigen in flow
# T3 construct: Bought recombinant protein
# T1 sequence (Q95LI5 22-198, chain 1 of 3): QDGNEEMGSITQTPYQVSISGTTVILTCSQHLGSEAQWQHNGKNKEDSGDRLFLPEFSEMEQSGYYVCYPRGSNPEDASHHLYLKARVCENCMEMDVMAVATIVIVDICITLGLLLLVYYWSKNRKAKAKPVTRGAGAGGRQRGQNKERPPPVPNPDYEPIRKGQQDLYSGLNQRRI
# T1 sequence (Q95LI7 23-181, chain 2 of 3, further chain): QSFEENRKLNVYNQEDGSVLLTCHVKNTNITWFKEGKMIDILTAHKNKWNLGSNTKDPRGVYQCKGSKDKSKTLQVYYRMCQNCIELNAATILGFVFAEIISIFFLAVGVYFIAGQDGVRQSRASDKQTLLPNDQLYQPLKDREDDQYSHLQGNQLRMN
# T1 sequence (Q95LI8 22-171, chain 3 of 3, further chain): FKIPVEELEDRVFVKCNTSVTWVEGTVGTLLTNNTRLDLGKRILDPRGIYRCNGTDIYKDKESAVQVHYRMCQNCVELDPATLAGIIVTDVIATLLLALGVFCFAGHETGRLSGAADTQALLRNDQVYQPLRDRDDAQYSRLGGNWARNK
Binder,EC50 [1] [nM],EC50 [2] [nM],Kd [3] [nM],koff [3] [s⁻¹],kon [3] [M⁻¹ s⁻¹]
"CD3-MSLN bispecific antibody B14 (bispecific antibody, human IgG1, lambda, [VH14]-[CH]-[L]-[3C6 VHH] with [VL-1]-[CL]) heavy: EVQLVESGGGLVQPGGSLRLSCAASGFTFNTYAMNWVRQAPGKGLEWVARIRSKYNNYATYYADSVKDRFTISRDDSKSSLYLQMNSLKTEDTAMYYCVRHSNFGNSYVSWFEYWGQGTLVTVSSASTKGPSVFPLAPSSKSTSGGTAALGCLVKDYFPEPVTVSWNSGALTSGVHTFPAVLQSSGLYSLSSVVTVPSSSLGTQTYICNVNHKPSNTKVDKKV[letters of human IgG1 Fc with changes omitted]GGGGSGGGGSEVQLVESGGGLVQAGESLRLSCAVSGNIGSIRHMGWHRQDPGKERELVATITTVGTTYYANFVKGRFTISRDNAKNTVYLQMNSLKPEDTGVYYCRATAHPTDYWGQGTQVTVSS light: [letters of about 100 residues omitted][letters of about 100 residues omitted]",0.29,1.96,0.61,0.0014,2.3e+06
"CD3-MSLN bispecific antibody B16 (bispecific antibody, human IgG1, lambda, [VH16]-[CH]-[L]-[3C6 VHH] with [VL-1]-[CL]) heavy: EVQLVESGGGLVQPGGSLRLSCAASGFTFNTYAMNWVRQAPGKGLEWVARIRSKYNNYATYYADSVKGRFTISRDDSKSILYLQMNSLKTEDTAVYYCVRHGNFGNSYVSWFQYWGQGTLVTVSSASTKGPSVFPLAPSSKSTSGGTAALGCLVKDYFPEPVTVSWNSGALTSGVHTFPAVLQSSGLYSLSSVVTVPSSSLGTQTYICNVNHKPSNTKVDKKV[letters of human IgG1 Fc with changes omitted]GGGGSGGGGSEVQLVESGGGLVQAGESLRLSCAVSGNIGSIRHMGWHRQDPGKERELVATITTVGTTYYANFVKGRFTISRDNAKNTVYLQMNSLKPEDTGVYYCRATAHPTDYWGQGTQVTVSS light: [letters of about 100 residues omitted][letters of about 100 residues omitted]",0.204,0.433,1.4,0.0013,910000
"CD3-MSLN bispecific antibody B17 (bispecific antibody, human IgG1, lambda, [VH17]-[CH]-[L]-[3C6 VHH] with [VL-1]-[CL]) heavy: EVQLVESGGGLVQPGGSLRLSCAASGFTFNTYAMNWVRQAPGKGLEWVARIRSKYNNYATYYADSVKDRFTISRDDSKSILYLQMNSLKTEDTAMYYCVRHGNFWNSYVSWFASWGQGTLVTVSSASTKGPSVFPLAPSSKSTSGGTAALGCLVKDYFPEPVTVSWNSGALTSGVHTFPAVLQSSGLYSLSSVVTVPSSSLGTQTYICNVNHKPSNTKVDKKV[letters of human IgG1 Fc with changes omitted]GGGGSGGGGSEVQLVESGGGLVQAGESLRLSCAVSGNIGSIRHMGWHRQDPGKERELVATITTVGTTYYANFVKGRFTISRDNAKNTVYLQMNSLKPEDTGVYYCRATAHPTDYWGQGTQVTVSS light: [letters of about 100 residues omitted][letters of about 100 residues omitted]",0.147,0.145,1.6,0.001,650000
"CD3-MSLN bispecific antibody B19 (bispecific antibody, human IgG1, lambda, [VH19]-[CH]-[L]-[3C6 VHH] with [VL-1]-[CL]) heavy: EVQLVESGGGLVQPGGSLRLSCAASGFTFNTYAMNWVRQAPGKGLEWVARIRSKYNNYATYYADSVKDRFTISRDDSKSILYLQMNSLKTEDTAVYYCVRHGNFGNSAVSWFQYWGQGTLVTVSSASTKGPSVFPLAPSSKSTSGGTAALGCLVKDYFPEPVTVSWNSGALTSGVHTFPAVLQSSGLYSLSSVVTVPSSSLGTQTYICNVNHKPSNTKVDKKV[letters of human IgG1 Fc with changes omitted]GGGGSGGGGSEVQLVESGGGLVQAGESLRLSCAVSGNIGSIRHMGWHRQDPGKERELVATITTVGTTYYANFVKGRFTISRDNAKNTVYLQMNSLKPEDTGVYYCRATAHPTDYWGQGTQVTVSS light: [letters of about 100 residues omitted][letters of about 100 residues omitted]",0.15,0.141,3.3,0.0049,1.5e+06
"CD3-MSLN bispecific antibody B20 (bispecific antibody, human IgG1, lambda, [VH20]-[CH]-[L]-[3C6 VHH] with [VL-1]-[CL]) heavy: EVQLVESGGGLVQPGGSLRLSCAASGFTFNTYAMNWVRQAPGKGLEWVARIRSKYNNYATYYADSVKDRFTISRDDSKSSLYLQMNSLKTEDTAVYYCVRHGNFGNSYVSWFQYWGQGTLVTVSSASTKGPSVFPLAPSSKSTSGGTAALGCLVKDYFPEPVTVSWNSGALTSGVHTFPAVLQSSGLYSLSSVVTVPSSSLGTQTYICNVNHKPSNTKVDKKV[letters of human IgG1 Fc with changes omitted]GGGGSGGGGSEVQLVESGGGLVQAGESLRLSCAVSGNIGSIRHMGWHRQDPGKERELVATITTVGTTYYANFVKGRFTISRDNAKNTVYLQMNSLKPEDTGVYYCRATAHPTDYWGQGTQVTVSS light: [letters of about 100 residues omitted][letters of about 100 residues omitted]",10,54.2,1.3,0.0014,1.1e+06
"CD3-MSLN bispecific antibody B21 (bispecific antibody, human IgG1, lambda, [VH21]-[CH]-[L]-[3C6 VHH] with [VL-1]-[CL]) heavy: EVQLVESGGGLVQPGGSLRLSCAASGFTFNTYAMNWVRQAPGKGLEWVARIRSKYNNYATYYADSVKGRFTISRDDSKSSLYLQMNSLKTEDTAMYYCVRHSNFGNTYVSWFAYWGQGTLVTVSSASTKGPSVFPLAPSSKSTSGGTAALGCLVKDYFPEPVTVSWNSGALTSGVHTFPAVLQSSGLYSLSSVVTVPSSSLGTQTYICNVNHKPSNTKVDKKV[letters of human IgG1 Fc with changes omitted]GGGGSGGGGSEVQLVESGGGLVQAGESLRLSCAVSGNIGSIRHMGWHRQDPGKERELVATITTVGTTYYANFVKGRFTISRDNAKNTVYLQMNSLKPEDTGVYYCRATAHPTDYWGQGTQVTVSS light: [letters of about 100 residues omitted][letters of about 100 residues omitted]",1.25,67.8,2.5,0.0022,900000

# Further lines, results first:
EC50 [1] [nM],EC50 [2] [nM],Kd [3] [nM],koff [3] [s⁻¹],kon [3] [M⁻¹ s⁻¹],Binder
0.163,0.193,1.4,0.0026,1.9e+06,"CD3-MSLN bispecific antibody B23 (bispecific antibody, human IgG1, lambda, [VH23]-[CH]-[L]-[3C6 VHH] with [VL-1]-[CL]) heavy: EVQLVESGGGLVQPGGSLRLSCAASGFTFNTYAMNWVRQAPGKGLEWVARIRSKYNNYATYYADSVKGRFTISRDDSKSILYLQMNSLKTEDTAMYYCVRHSNFLNSYVSWFAYWGQGTLVTVSSASTKGPSVFPLAPSSKSTSGGTAALGCLVKDYFPEPVTVSWNSGALTSGVHTFPAVLQSSGLYSLSSVVTVPSSSLGTQTYICNVNHKPSNTKVDKKV[letters of human IgG1 Fc with changes omitted]GGGGSGGGGSEVQLVESGGGLVQAGESLRLSCAVSGNIGSIRHMGWHRQDPGKERELVATITTVGTTYYANFVKGRFTISRDNAKNTVYLQMNSLKPEDTGVYYCRATAHPTDYWGQGTQVTVSS light: [letters of about 100 residues omitted][letters of about 100 residues omitted]"
0.239,1.17,2.1,0.0014,660000,"CD3-MSLN bispecific antibody B24 (bispecific antibody, human IgG1, lambda, [VH24]-[CH]-[L]-[3C6 VHH] with [VL-1]-[CL]) heavy: EVQLVESGGGLVQPGGSLRLSCAASGFTFNTYAMNWVRQAPGKGLEWVARIRSKYNNYATYYADSVKGRFTISRDDSKSILYLQMNSLKTEDTAVYYCVRHSNFGRSYVSWFAYWGQGTLVTVSSASTKGPSVFPLAPSSKSTSGGTAALGCLVKDYFPEPVTVSWNSGALTSGVHTFPAVLQSSGLYSLSSVVTVPSSSLGTQTYICNVNHKPSNTKVDKKV[letters of human IgG1 Fc with changes omitted]GGGGSGGGGSEVQLVESGGGLVQAGESLRLSCAVSGNIGSIRHMGWHRQDPGKERELVATITTVGTTYYANFVKGRFTISRDNAKNTVYLQMNSLKPEDTGVYYCRATAHPTDYWGQGTQVTVSS light: [letters of about 100 residues omitted][letters of about 100 residues omitted]"
0.184,0.0973,6.4,0.0058,910000,"CD3-MSLN bispecific antibody B25 (bispecific antibody, human IgG1, lambda, [VH25]-[CH]-[L]-[3C6 VHH] with [VL-1]-[CL]) heavy: EVQLVESGGGLVQPGGSLRLSCAASGFTFNTYAMNWVRQAPGKGLEWVARIRSKYNNYATYYADSVKDRFTISRDDSKSILYLQMNSLKTEDTAMYYCVRHGNFGNSRVSWFAYWGQGTLVTVSSASTKGPSVFPLAPSSKSTSGGTAALGCLVKDYFPEPVTVSWNSGALTSGVHTFPAVLQSSGLYSLSSVVTVPSSSLGTQTYICNVNHKPSNTKVDKKV[letters of human IgG1 Fc with changes omitted]GGGGSGGGGSEVQLVESGGGLVQAGESLRLSCAVSGNIGSIRHMGWHRQDPGKERELVATITTVGTTYYANFVKGRFTISRDNAKNTVYLQMNSLKPEDTGVYYCRATAHPTDYWGQGTQVTVSS light: [letters of about 100 residues omitted][letters of about 100 residues omitted]"
0.339,0.218,3.1,0.005,1.6e+06,"CD3-MSLN bispecific antibody B26 (bispecific antibody, human IgG1, lambda, [VH26]-[CH]-[L]-[3C6 VHH] with [VL-1]-[CL]) heavy: EVQLVESGGGLVQPGGSLRLSCAASGFTFNTYAMNWVRQAPGKGLEWVARIRSKYNNYATYYADSVKDRFTISRDDSKSILYLQMNNLKTEDTAMYYCVRHGNFGNSQVSWFQYWGQGTLVTVSSASTKGPSVFPLAPSSKSTSGGTAALGCLVKDYFPEPVTVSWNSGALTSGVHTFPAVLQSSGLYSLSSVVTVPSSSLGTQTYICNVNHKPSNTKVDKKV[letters of human IgG1 Fc with changes omitted]GGGGSGGGGSEVQLVESGGGLVQAGESLRLSCAVSGNIGSIRHMGWHRQDPGKERELVATITTVGTTYYANFVKGRFTISRDNAKNTVYLQMNSLKPEDTGVYYCRATAHPTDYWGQGTQVTVSS light: [letters of about 100 residues omitted][letters of about 100 residues omitted]"
